About 220 (0.56%) of roughly 39,000 compounds showed activity. The list shows a part of the results.
Test system: Escherichia coli K-12 BW25113
Assay: relative growth (OD600 normalised to plate interquartile mean) (fraction); higher = less growth inhibition, active = 0.2 or less
Settings: 50 µM; LB; incubation time: overnight (16-24 h)
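Note: static incubation at 37 °C against the wild-type strain, values averaged over two biological replicates.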

| Structure (SMILES) | relative growth |
| --- | --- |
| COc1ccc(S(=O)(=O)Nc2ccc3c(c2)C(=O)N([C@@H](C)CO)C[C@@H](C)[C@@H](CN(C)S(=O)(=O)c2cn(C)cn2)OCCCC[C@H](C)O3)cc1 | inactive: 1.01 |
| Cc1noc(C)c1S(=O)(=O)Nc1ccc2c(c1)C(=O)N([C@@H](C)CO)C[C@@H](C)[C@H](CN(C)C)OCCCC[C@@H](C)O2 | inactive: 1.01 |
| CC(C)NC(=O)Nc1cccc2c1O[C@H](CN(C)S(=O)(=O)c1cccs1)[C@H](C)CN([C@H](C)CO)C2=O | inactive: 0.997 |
| Cc1cccc(CN2CCN(C(c3ccccc3)c3ccc(Cl)cc3)CC2)c1.Cl.Cl (stereo not drawn) | inactive: 0.969 |
| CC(C)OC(=O)[C@H](C)N[P@](=O)(OC[C@H]1O[C@@H](n2ccc(=O)[nH]c2=O)[C@](C)(Cl)[C@@H]1O)Oc1ccccc1 | inactive: 0.995 |
| C[C@H]1CN([C@@H](C)CO)C(=O)c2cc(NC(=O)Nc3cccc4ccccc34)ccc2O[C@@H]1CN(C)S(=O)(=O)c1ccc(F)cc1 | inactive: 1.04 |
| COc1cc2c(cc1OC)CN(C(=O)[C@@H]1[C@H]3C(=O)O[C@H](c4ccccc4)[C@H](c4ccccc4)N3[C@H](c3ccc(O)cc3)[C@@]13C(=O)Nc1ccc(C#CC4(O)CCCCCC4)cc13)CC2 | inactive: 1.02 |
| O=C(O)[C@@H]1[C@@H](CO)[C@@H]2Cn3c(ccc(-c4cncnc4)c3=O)[C@@H]2N1C(=O)C1CCC1 | inactive: 1 |
| C[C@H]1CN([C@@H](C)CO)C(=O)Cc2cc(NC(=O)c3ccncc3)ccc2O[C@@H]1CN(C)Cc1ccc(-c2ccccc2)cc1 | inactive: 1 |
| C[C@@H]1CCCCO[C@@H](CN(C)S(=O)(=O)c2cn(C)cn2)[C@H](C)CN([C@H](C)CO)C(=O)c2cc(NC(=O)Nc3cccc4ccccc34)ccc2O1 | inactive: 1.01 |
| C[C@@H]1CN([C@H](C)CO)C(=O)c2cccc(NC(=O)c3nc4ccccc4s3)c2O[C@@H]1CN(C)Cc1ccc(Cl)c(Cl)c1 | inactive: 1.03 |
| CCS(=O)(=O)N1C[C@]2(CCN(CC2)C(=O)c2cccnc2)c2c(n(c3cc(ccc23)OC)C)[C@H]1CO | inactive: 0.993 |
| C[C@@H]1CCCCO[C@H](CN(C)S(=O)(=O)c2ccccc2)[C@H](C)CN([C@H](C)CO)C(=O)c2cc(NS(=O)(=O)c3cn(C)cn3)ccc2O1 | inactive: 1 |
| C[C@@H]1CN([C@@H](C)CO)C(=O)c2cccc(NC(=O)c3ccc(-c4nccs4)cc3)c2O[C@@H]1CN(C)Cc1ccc2c(c1)OCO2 | inactive: 1.04 |
| C[C@H]1CN([C@@H](C)CO)C(=O)c2cccc(NC(=O)c3cnccn3)c2O[C@H]1CN(C)C(=O)Nc1ccc(F)cc1 | inactive: 1.03 |
| CCCC(=O)Nc1ccc2c(c1)C(=O)N(C)[C@@H]1CC[C@H](CC(=O)NCCN3CCCCC3)O[C@H]1CO2 | inactive: 0.974 |
| CO/N=[N+](\[O-])N1CCC[C@H](C(N)=O)C1 | inactive: 0.945 |
| COc1ccc(S(=O)(=O)Nc2ccc3c(c2)CC(=O)N([C@@H](C)CO)C[C@H](C)[C@H](CN(C)S(=O)(=O)c2cccs2)O3)cc1 | inactive: 0.996 |
| CCN(CC)c1ccc(N2CC=C[C@@]34O[C@@H]5C=CCCOC(=O)[C@@H]5[C@H]3C(=O)N(CCCO)[C@@H]4C2=O)cc1 | inactive: 0.98 |
| Cc1noc(C)c1NC(=O)Nc1ccc2c(c1)C(=O)N([C@H](C)CO)C[C@@H](C)[C@@H](CN(C)S(C)(=O)=O)O2 | inactive: 0.995 |

| Structure (SMILES) | relative growth |
| --- | --- |
| O=C(O)c1ccc(CCO)s1 | inactive: 1.01 |
| CC1(C)CC(/C=C/c2ccccc2)=Nc2ccccc2N1 | inactive: 1.03 |
| COCC#Cc1ccc2c(c1)O[C@H](CN(C)Cc1ccc3c(c1)OCO3)[C@@H](C)CN([C@@H](C)CO)S2(=O)=O | inactive: 1.02 |
| CO[C@@H]1CN(C)C(=O)c2cc(NS(=O)(=O)c3ccccc3)ccc2OC[C@H](C)N(C(=O)NC(C)C)C[C@H]1C | inactive: 1 |
| C[C@@H]1CCCCO[C@@H](CN(C)Cc2ccc3c(c2)OCO3)[C@H](C)CN([C@@H](C)CO)C(=O)c2cc(NC(=O)NC3CCCCC3)ccc2O1 | inactive: 0.973 |
| COC(=O)C[C@H]1C=C[C@H](N)[C@H](CO)O1 | inactive: 0.979 |
| C[C@@H]1CN([C@H](C)CO)C(=O)c2cc(NC(=O)c3ccccc3)ccc2O[C@@H](C)CCCCO[C@H]1CN(C)C(=O)Nc1cccc2ccccc12 | inactive: 1.07 |
| O=C1C[C@@](C(=O)NCc2ccccc2)(c2ccc([N+](=O)[O-])cc2)[C@@H](c2ccc(CO)cc2)N1CC12CC3CC(CC(C3)C1)C2 | inactive: 1.02 |
| C[C@H](CO)N1C[C@H](C)[C@H](CN(C)C(=O)Nc2ccc(C(F)(F)F)cc2)Oc2ccc(NC(=O)NC3CCCCC3)cc2CC1=O | inactive: 1.03 |
| COc1ccc(NC(=O)Nc2cccc3c2O[C@H](CN(C)C(=O)Nc2ccc(C(F)(F)F)cc2)[C@H](C)CN([C@H](C)CO)C3=O)cc1 | inactive: 0.984 |
| COc1ccc(NC(=O)N(C)C[C@@H]2OCCCC[C@H](C)Oc3ccc(NC(=O)Nc4ccc(C(F)(F)F)cc4)cc3C(=O)N([C@H](C)CO)C[C@@H]2C)cc1 | inactive: 1.01 |
| C[C@H](CO)N1C[C@H](C)[C@@H](CN(C)S(=O)(=O)c2ccccc2)OCCCC[C@H](C)Oc2ccc(NS(C)(=O)=O)cc2C1=O | inactive: 1.02 |
| C[C@@H]1CN([C@H](C)CO)C(=O)c2cccc(NS(=O)(=O)c3ccc(Cl)cc3)c2O[C@@H]1CN(C)Cc1ccc(C(=O)Nc2ccccc2N)cc1 | inactive: 0.984 |
| CN1CCN(C(=O)C[C@@H]2CC[C@@H]3[C@H](COC[C@@H](O)CN3C(=O)Nc3ccc4c(c3)OCO4)O2)CC1 | inactive: 0.99 |
| C[C@@H]1CN([C@@H](C)CO)C(=O)c2cccc(NC(=O)Nc3ccc4c(c3)OCO4)c2O[C@H]1CN(C)Cc1ccc(Oc2ccccc2)cc1 | inactive: 1.01 |
| COCCOC(=O)N1C(=O)[C@@]2(c3cc(C#CCC(C(=O)OC)C(=O)OC)ccc31)[C@H](c1ccc(OCCO)cc1)N1[C@H](c3ccccc3)[C@H](c3ccccc3)OC(=O)[C@H]1[C@@H]2C(=O)N1CCc2cc(OC)c(OC)cc2C1 | inactive: 1.03 |
| C[C@@H]1CCCCO[C@H](CN(C)Cc2ccncc2)[C@@H](C)CN([C@H](C)CO)C(=O)c2cc(NC(=O)NC3CCCCC3)ccc2O1 | inactive: 1 |
| COc1cccc(S(=O)(=O)Nc2ccc3c(c2)[C@H]2C[C@H](CC(=O)NCC(F)(F)F)O[C@H](CO)[C@H]2O3)c1 | inactive: 0.985 |
| Cc1noc(C)c1S(=O)(=O)N(C)C[C@@H]1OCCCC[C@H](C)Oc2ccc(NS(=O)(=O)c3cn(C)cn3)cc2C(=O)N([C@H](C)CO)C[C@@H]1C | inactive: 0.989 |
| C[C@@H]1CN([C@H](C)CO)C(=O)Cc2cc(NC(=O)Nc3ccc(C(F)(F)F)cc3)ccc2O[C@@H]1CN(C)Cc1ccc(-c2ccccc2)cc1 | inactive: 1.02 |

| Structure (SMILES) | relative growth |
| --- | --- |
| CN1C(=O)Cc2ccccc2C1=O | inactive: 0.978 |
| C[C@@H]1CN([C@H](C)CO)C(=O)Cc2cc(NS(=O)(=O)c3ccc(Cl)cc3)ccc2O[C@@H]1CN(C)Cc1ccc(Oc2ccccc2)cc1 | inactive: 0.998 |
| CCC(C)(C)NC(=N)NC#N | inactive: 0.988 |
| C[C@@H]1CN([C@H](C)CO)C(=O)c2cc(NC(=O)Nc3ccc(F)cc3)ccc2O[C@@H](C)CCCCO[C@@H]1CN(C)S(=O)(=O)c1cccs1 | inactive: 1.04 |
| CO[C@@H]1CN(C)C(=O)c2cc(NS(C)(=O)=O)ccc2OC[C@H](C)N(C(=O)CN(C)C)C[C@H]1C | inactive: 0.981 |
| C/C=C/c1cnc2c(c1)C(=O)N([C@@H](C)CO)C[C@@H](C)[C@@H](CN(C)S(=O)(=O)c1ccc(OC)cc1)O2 | inactive: 0.968 |
| Cc1noc(C)c1S(=O)(=O)N(C)C[C@@H]1Oc2ccc(NS(=O)(=O)c3ccccc3)cc2CC(=O)N([C@@H](C)CO)C[C@@H]1C | inactive: 0.991 |
| Cn1cnc(S(=O)(=O)N[C@H]2C=C[C@H](CC(=O)N3CCN(c4ccccc4)CC3)O[C@@H]2CO)c1 | inactive: 0.984 |
| C[C@H]1CN([C@@H](C)CO)C(=O)Cc2cc(NC(=O)CCN3CCOCC3)ccc2O[C@H]1CN(C)Cc1ccc(C(=O)O)cc1 | inactive: 1.01 |
| CC(C)NC(=O)Nc1ccc2c(c1)C(=O)N([C@@H](C)CO)C[C@@H](C)[C@@H](CN(C)C(=O)NC1CCCCC1)O2 | inactive: 1.03 |
| CC(=O)O[C@@H]1[C@@H]2OC(=O)[C@H](OC(C)=O)[C@@H]2O[C@H]1n1ccc(=O)[nH]c1=O | inactive: 1.02 |
| C[C@H](CO)N1C[C@H](C)[C@@H](CN(C)Cc2ccc(C(=O)Nc3ccccc3N)cc2)Oc2ccc(NS(=O)(=O)c3ccc(Cl)cc3)cc2C1=O | inactive: 1.01 |
| Cc1ccc(S(=O)(=O)Nc2ccc3c(c2)C(=O)N([C@H](C)CO)C[C@H](C)[C@H](CN(C)C(=O)CCC(F)(F)F)OCCCC[C@@H](C)O3)cc1 | inactive: 0.99 |
| Nn1c(-c2ccncc2)nncc1=O | inactive: 0.988 |
| O=C(C[C@@H]1C[C@H]2c3cc(NS(=O)(=O)c4ccccc4)ccc3O[C@H]2[C@H](CO)O1)NCC(F)(F)F | inactive: 1 |
| C[C@H](CO)N1C[C@H](C)[C@H](CN(C)C(=O)Nc2cccc3ccccc23)Oc2ncc(C#CCC3CCCC3)cc2C1=O | inactive: 1.01 |
| CN1C[C@H](O)COC[C@H]2O[C@@H](CC(=O)N3CCN(c4ccccc4)CC3)CC[C@@H]21 | inactive: 1.01 |
| Cc1ccc(S(=O)(=O)Nc2cccc3c2O[C@@H](CN(C)Cc2ccc(C(F)(F)F)cc2)[C@H](C)CN([C@@H](C)CO)C3=O)cc1 | inactive: 1.05 |

Source: the supplement of paper PMC9446081
